# In paper PMC5540273 (PLoS ONE, 2017):
# For some of these results: What follows is the remainder of the data, with few or none of the strong results. This is a selection; strong and weak results do not stand in their true shares.
# Columns and labels:
# Conditions in all cases: concentration: 1 μM,replicates: in singlicate; n = 1
# [1] = tested on: CSNK1D
# [2] = tested on: CSNK1E
# [3] = tested on: CSNK1G1
# [4] = tested on: CSNK1G2
# [5] = tested on: CSNK1G3
# [6] = tested on: CSNK2A1
# [7] = tested on: CSNK2A2
# [8] = tested on: T1, CTK
# T1 construct: gene MATK
# [9] = tested on: DAPK1
# [10] = tested on: DAPK2
# 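Also: KINOMEscan kinase panel screen.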
structure (smiles),measurement,setting,value
CS(=O)(=O)c1ccccc1-c1nc(-c2ccc(F)cc2)c(-c2ccncc2)[nH]1 [SB-213663],%Inh,[1],74%
same,%Inh,[2],66%
same,%Inh,[3],0%
same,%Inh,[4],0%
same,%Inh,[5],0%
same,%Inh,[6],0%
same,%Inh,[7],0%
same,%Inh,[8],1%
same,%Inh,[9],11%
same,%Inh,[10],0%
O=C1NC(=O)C(c2ccc(Cl)cc2)=C1Nc1cccc(C(=O)O)c1 [SB-360737],%Inh,[1],15%
same,%Inh,[2],6%
same,%Inh,[3],0%
same,%Inh,[4],0%
same,%Inh,[5],0%
same,%Inh,[6],0%
same,%Inh,[7],0%
same,%Inh,[8],0%
same,%Inh,[9],0%
same,%Inh,[10],0%
O=C1NC(=O)C(c2ccccc2)=C1Nc1cc(Cl)c(O)c(Cl)c1 [SB-390530],%Inh,[1],24%
same,%Inh,[2],0%
same,%Inh,[3],8%
same,%Inh,[4],0%
same,%Inh,[5],0%
same,%Inh,[6],0%
same,%Inh,[7],3%
same,%Inh,[8],23%
same,%Inh,[9],2%
same,%Inh,[10],0%
O=C1NC(=O)C(c2ccc(Cl)cc2)=C1Nc1cccc(O)c1 [SB-333613],%Inh,[1],4%
same,%Inh,[2],0%
same,%Inh,[3],0%
same,%Inh,[4],4%
same,%Inh,[5],0%
same,%Inh,[6],0%
same,%Inh,[7],24%
same,%Inh,[8],31%
same,%Inh,[9],15%
same,%Inh,[10],13%
O=C1NC(=O)C(c2ccc(Cl)cc2)=C1Nc1ccccc1 [SB-317661],%Inh,[1],0%
same,%Inh,[2],2%
same,%Inh,[3],7%
same,%Inh,[4],0%
same,%Inh,[5],0%
same,%Inh,[6],0%
same,%Inh,[7],0%
same,%Inh,[8],41%
same,%Inh,[9],0%
same,%Inh,[10],14%
Cc1ccc(C)c(Oc2nccc(-c3c(-c4ccc(F)cc4)ncn3C3CCNCC3)n2)c1.O=C(O)C(F)(F)F.O=C(O)C(F)(F)F.O=C(O)C(F)(F)F [SB-284852],%Inh,[1],95.2%
same,%Inh,[2],97%
same,%Inh,[3],97.6%
same,%Inh,[4],21%
same,%Inh,[5],29%
same,%Inh,[6],0%
same,%Inh,[7],1%
same,%Inh,[8],0%
same,%Inh,[9],0%
same,%Inh,[10],0%
Cc1cc(C)cc(Oc2nccc(-c3c(-c4ccc(F)cc4)ncn3C3CCNCC3)n2)c1.O=C(O)C(F)(F)F.O=C(O)C(F)(F)F.O=C(O)C(F)(F)F [SB-284851],%Inh,[1],90.1%
same,%Inh,[2],70%
same,%Inh,[3],13%
same,%Inh,[4],39%
same,%Inh,[5],21%
same,%Inh,[6],0%
same,%Inh,[7],0%
same,%Inh,[8],0%
same,%Inh,[9],0%
same,%Inh,[10],22%
O=C1NC(=O)C(c2ccccc2)=C1Nc1ccc(Cl)c(C(=O)O)c1 [SB-390532],%Inh,[1],0%
same,%Inh,[2],18%
same,%Inh,[3],0%
same,%Inh,[4],0%
same,%Inh,[5],5%
same,%Inh,[6],0%
same,%Inh,[7],18%
same,%Inh,[8],0%
same,%Inh,[9],0%
same,%Inh,[10],0%
O=C1NC(=O)C(c2ccccc2Cl)=C1Nc1ccccc1 [SB-376715],%Inh,[1],6%
same,%Inh,[2],0%
same,%Inh,[3],91.7%
same,%Inh,[4],0%
same,%Inh,[5],5%
same,%Inh,[6],0%
same,%Inh,[7],4%
same,%Inh,[8],0%
same,%Inh,[9],0%
same,%Inh,[10],9%
O=C1NC(=O)c2c1c(-c1ccccc1)cc1[nH]c3ccc(O)cc3c21,%Inh,[1],51%
same,%Inh,[2],50%
same,%Inh,[3],2%
same,%Inh,[4],62%
same,%Inh,[5],40%
same,%Inh,[6],79%
same,%Inh,[7],81%
same,%Inh,[8],8%
same,%Inh,[9],22%
same,%Inh,[10],2%
O=C(O)c1ccc(-c2nc(-c3ccc(F)cc3)c(-c3ccncc3)[nH]2)cc1 [SB-202620],%Inh,[1],29%
same,%Inh,[2],28%
same,%Inh,[3],0%
same,%Inh,[4],22%
same,%Inh,[5],0%
same,%Inh,[6],0%
same,%Inh,[7],18%
same,%Inh,[8],2%
same,%Inh,[9],5%
same,%Inh,[10],16%
O=C1NC(=O)C(c2ccccc2Cl)=C1Nc1cccc(C(=O)O)c1 [SB-390526],%Inh,[1],36%
same,%Inh,[2],19%
same,%Inh,[3],29%
same,%Inh,[4],12%
same,%Inh,[5],12%
same,%Inh,[6],10%
same,%Inh,[7],7%
same,%Inh,[8],0%
same,%Inh,[9],0%
same,%Inh,[10],7%
COc1cccc(C2=C(Nc3ccc(SC)cc3)C(=O)NC2=O)c1 [SB-331032],%Inh,[1],0%
same,%Inh,[2],10%
same,%Inh,[3],0%
same,%Inh,[4],0%
same,%Inh,[5],2%
same,%Inh,[6],0%
same,%Inh,[7],5%
same,%Inh,[8],0%
same,%Inh,[9],0%
same,%Inh,[10],40%
COc1ccc(C2=C(Nc3cccc(Cl)c3)C(=O)NC2=O)cc1 [SB-326892],%Inh,[1],0%
same,%Inh,[2],0%
same,%Inh,[3],0%
same,%Inh,[4],0%
same,%Inh,[5],22%
same,%Inh,[6],0%
same,%Inh,[7],16%
same,%Inh,[8],35%
same,%Inh,[9],69%
same,%Inh,[10],0%
CSc1ccc(NC2=C(c3cccc(Cl)c3)C(=O)NC2=O)cc1 [SB-341528],%Inh,[1],8%
same,%Inh,[2],0%
same,%Inh,[3],0%
same,%Inh,[4],0%
same,%Inh,[5],0%
same,%Inh,[6],0%
same,%Inh,[7],0%
same,%Inh,[8],22%
same,%Inh,[9],0%
same,%Inh,[10],0%
O=C1NC(=O)C(c2ccc(Cl)cc2)=C1Nc1ccc(O)c(Cl)c1 [SB-405367],%Inh,[1],23%
same,%Inh,[2],0%
same,%Inh,[3],0%
same,%Inh,[4],11%
same,%Inh,[5],8%
same,%Inh,[6],3%
same,%Inh,[7],12%
same,%Inh,[8],45%
same,%Inh,[9],0%
same,%Inh,[10],13%
